Drawing on the RNAGym collection of RNA variant scans (doi:10.1093/nar/gkz1192), this text covers self-cleavage for 34 variants.

The source gives no read counts; variants with many changes may rest on few reads.

The chains are these.
B1: CPEB3 Ribozyme (parent)
chain: UAACAGGGGGCCACAGCAGAAGCGUUCACGUCGCAGCCCCUGUCAGAUUCUGGUGAAUCUGCGAAUUCUGCUGUAUAUCUC

In the data set the parent is B1. In words: self-cleavage, relative activity (ratio to wild type); higher = more cleavage; in vitro, sequencing. The method in brief: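 CPEB3 self-cleaving ribozyme mutant libraries were made by rounds of error-prone PCR, barcoded, and transcribed in vitro with T7 RNA polymerase for 5 hours at 37°C. Cleavage occurred during transcription and a 15 min DNase I step before EDTA stop. RNAs were reverse transcribed with template switching and Illumina-sequenced, with DNA sequencing mapping barcodes to variants. Relative activity is the variant's cleaved/total read fraction divided by wild type's (minimum 5 reads), averaged across three batches.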
On to UAACAGGGGGCCACAGCAGAAGCGUUCACGUCGCAGCCCCUGUCAGAUUCUGGCGAAUCUGCGAAUUCUGCUGUACACCUC, for which the self-cleavage amounted to 1.05.

Regarding UAACAGGGGGCCACAGCAGAAGCGUUCACGUCGCAGCCCCUGUCAGAUUCUGGUAAAUCUGCGUAUCCUGCUGUAUAUCUC, the self-cleavage stood at 0.2.

With UAACAGGGGGCCACAGCAGAAGCGUUCACGUCGCAGCCCCUGUCAGAUUCUGGCGAAUCUGCGAAUACUGCCGUGUAUCUC, the self-cleavage is 0.44.

As to UAACAGGGGGCCACAGCAGAAGCGUUCACGUCGCAGCCCCUGUCAGAUUCUGGUCAAUCUGCGAAUUCAGCAGUAUAUCUC, the self-cleavage amounted to 0.19.

With UAACAGGGGGCCACAGCAGAAGCGUUCACGUCGCAGCCCCUGUCAGAUUCUGGCGAAUCUGCGAACACUGCUGUAUAUCUC, the self-cleavage was found to be 0.2.

Take UAACAGGGGGCCACAGCAGAAGCGUUCACGUCGCAGCCCCUGUCAGAUUCUGGCGAAUCAGCGAGUUCCGCUGUAUAUCUC: the self-cleavage is 0.27.

As for UAACAGGGGGCCACAGCAGAAGCGUUCACGUCGCAGCCCCUGUCAGAUUCUGGCGAACCUGCGAAUUCUGCUAUGUAUCUC, the self-cleavage is 1.07.

On to UAACAGGGGGCCACAGCAGAAGCGUUCACGUCGCAGCCCCUGUCAGAUUCUGGCGAAUCUGCGAAUUCUGCCGUAUACCUC, for which the self-cleavage was 1.24.

In the case of UAACAGGGGGCCACAGCAGAAGCGUUCACGUCGCAGCCCCUGUCAGAUUCUGGUUAAUCUGCGAAUUCUGCCGUAUAUCAC, the self-cleavage was found to be 1.27.

On to UAACAGGGGGCCACAGCAGAAGCGUUCACGUCGCAGCCCCUGUCAGAUUCUGGCGAAUCAGCGAAUUCUGCAGUAUAUCUC, for which the self-cleavage worked out at 0.35.

UAACAGGGGGCCACAGCAGAAGCGUUCACGUCGCAGCCCCUGUCAGAUUCUGGCGAAUCUGCGAAUCCCGCUGUAUAUCUC: the self-cleavage was determined as 0.15.

As to UAACAGGGGGCCACAGCAGAAGCGUUCACGUCGCAGCCCCUGUCAGAUUCUGGCGAAUCUGCGAAUCCAGCUGUAUAUCUC, the self-cleavage turned out to be 0.26.

In the case of UAACAGGGGGCCACAGCAGAAGCGUUCACGUCGCAGCCCCUGUCAGAUUCUGGCGAAACUGCGAAUUCUGCUGUAUAUCCC, the self-cleavage was found to be 0.26.

Regarding UAACAGGGGGCCACAGCAGAAGCGUUCACGUCGCAGCCCCUGUCAGAUUCUGGUGCAUCUGCGUAUUCUGCUGUAUACCUC, the self-cleavage came to 0.29.

Turning to UAACAGGGGGCCACAGCAGAAGCGUUCACGUCGCAGCCCCUGUCAGAUUCUGGCGAAUCUGCAGAUUCGGCUGUAUAUCUC, the self-cleavage worked out at 0.37.

In the case of UAACAGGGGGCCACAGCAGAAGCGUUCACGUCGCAGCCCCUGUCAGAUUCUGGCGAAUCUGCGAAAUCAGCUGUAUAUCUC, the self-cleavage amounted to 0.18.

As for UAACAGGGGGCCACAGCAGAAGCGUUCACGUCGCAGCCCCUGUCAGAUUCUGGGGAAUCUGCCAUUUCAGCUGUAUAUCUC, the self-cleavage is 0.34.

Turning to UAACAGGGGGCCACAGCAGAAGCGUUCACGUCGCAGCCCCUGUCAGAUUCUGGCGAAUCAGCGAACUCUGCUGUAUAUCUC, the self-cleavage was 0.19.

In the case of UAACAGGGGGCCACAGCAGAAGCGUUCACGUCGCAGCCCCUGUCAGAUUCUGGCGAAUCUGCGAAUUCUACUGUAUGUCUC, the self-cleavage was determined as 0.54.

In the case of UAACAGGGGGCCACAGCAGAAGCGUUCACGUCGCAGCCCCUGUCAGAUUCUGGUAUAUCUGCGAAUUCAGCUGUAUAUCUC, the self-cleavage was found to be 0.35.

As for UAACAGGGGGCCACAGCAGAAGCGUUCACGUCGCAGCCCCUGUCAGAUUCUGGCGAACCCGCGAAUUCUGCUGAAUAUCUC, the self-cleavage was 0.24.

Regarding UAACAGGGGGCCACAGCAGAAGCGUUCACGUCGCAGCCCCUGUCAGAUUCUGGGUAAUCUGCGAAUUCUGCUGUAUAUCCC, the self-cleavage worked out at 0.98.

Take UAACAGGGGGCCACAGCAGAAGCGUUCACGUCGCAGCCCCUGUCAGAUUCUGGGGAAUCUGCGAAUACUGCUGUAUACCUC: the self-cleavage is 0.2.

As to UAACAGGGGGCCACAGCAGAAGCGUUCACGUCGCAGCCCCUGUCAGAUUCUGGGGAAUCUGCGGAUUCCGCUGUAUGUCUC, the self-cleavage was 0.21.

Take UAACAGGGGGCCACAGCAGAAGCGUUCACGUCGCAGCCCCUGUCAGAUUCUGGUAAGUCUGCGAAUUCUGCUGUAUACCUC: the self-cleavage was 0.5.

Take UAACAGGGGGCCACAGCAGAAGCGUUCACGUCGCAGCCCCUGUCAGAUUCUGGUUAAUCAGCGAAUUCUGCUGUAUUCCUC: the self-cleavage stood at 0.31.

On to UAACAGGGGGCCACAGCAGAAGCGUUCACGUCGCAGCCCCUGUCAGAUUCUGGUUGAUCUGCGUAUUCUGCUGUACAUCUC, for which the self-cleavage turned out to be 0.23.

For the variant UAACAGGGGGCCACAGCAGAAGCGUUCACGUCGCAGCCCCUGUCAGAUUCUGGUAGAUCUGCGAAUUCUGCUGGAUAUCUC, the self-cleavage stood at 1.07.

Consider UAACAGGGGGCCACAGCAGAAGCGUUCACGUCGCAGCCCCUGUCAGAUUCUGGCGAACCUGCGAAUUCAGCUGUAUACCUC, for which the self-cleavage was found to be 0.17.

Consider UAACAGGGGGCCACAGCAGAAGCGUUCACGUCGCAGCCCCUGUCAGAUUCUGGCGAAUCUGCGAAUCUUGCUGUAUAUCUC, for which the self-cleavage was found to be 0.18.

For UAACAGGGGGCCACAGCAGAAGCGUUCACGUCGCAGCCCCUGUCAGAUUCUGGCGAAUCUGCGAAUUCUGCCGUAUAUCCC, the self-cleavage stood at 1.15.

UAACAGGGGGCCACAGCAGAAGCGUUCACGUCGCAGCCCCUGUCAGAUUCUGGUAAAUCUGCGAAUCCUGCAGUAUAUCUC: the self-cleavage stood at 0.11.

For the variant UAACAGGGGGCCACAGCAGAAGCGUUCACGUCGCAGCCCCUGUCAGAUUCUGGCGAACCCGCGAAUUCUGCUGUAUAUCUC, the self-cleavage came out at 0.17.

For UAACAGGGGGCCACAGCAGAAGCGUUCACGUCGCAGCCCCUGUCAGAUUCUGGUCAAUCUGCGAUUACUGCUGUAUAUCUC, the self-cleavage stood at 0.21.
